# According to PubChem BioAssay AID1768 (National Center for Advancing Translational Sciences (NCATS), 2009):
# Screen size: about 270,000 compounds; about 620 (0.23%) were called active. The inconclusive results got no clear call from the source; some entries with a clear call stand among them for comparison. Calls follow the shape of the dose curve; as a rule, active = well fitted inhibition curve with a large enough effect in the polarisation, with a control signal flat (not every such curve was filed as active); inconclusive = small, poorly fitted or top-dose-only effect, or effect the other way, or a change in a side signal; inactive = no such curve, though single readings can be large or run the other way; the % refers to the polarisation. Where the call is inconclusive, the potency comes from a doubtful curve fit. A note “side channel” means that the fit belongs to a control or component signal, not to the main read-out.
# Biological target: Menin (Homo sapiens) (UniProt O00255)
# Chain of UniProt O00255 (O00255 whole entry, looked up): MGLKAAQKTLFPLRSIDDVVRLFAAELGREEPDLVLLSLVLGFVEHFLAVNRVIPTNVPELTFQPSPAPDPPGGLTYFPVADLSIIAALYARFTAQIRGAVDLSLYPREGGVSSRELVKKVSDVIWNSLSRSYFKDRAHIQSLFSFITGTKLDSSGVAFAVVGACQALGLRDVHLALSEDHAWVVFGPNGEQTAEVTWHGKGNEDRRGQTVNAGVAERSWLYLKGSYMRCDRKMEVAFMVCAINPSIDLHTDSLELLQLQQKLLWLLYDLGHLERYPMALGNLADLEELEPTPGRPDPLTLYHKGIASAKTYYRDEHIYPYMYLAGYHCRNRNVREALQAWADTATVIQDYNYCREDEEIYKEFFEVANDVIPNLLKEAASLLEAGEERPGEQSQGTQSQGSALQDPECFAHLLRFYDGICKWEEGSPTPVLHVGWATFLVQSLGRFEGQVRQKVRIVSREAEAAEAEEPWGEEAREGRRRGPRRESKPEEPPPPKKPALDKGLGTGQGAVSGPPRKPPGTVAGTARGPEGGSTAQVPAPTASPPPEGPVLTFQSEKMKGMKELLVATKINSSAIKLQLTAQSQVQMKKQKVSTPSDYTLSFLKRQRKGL
# Assay: qHTS Assay for Inhibitors Targeting the Menin-MLL Interaction in MLL Related Leukemias: Competition With Texas Red Labeled MLL-derived Mutant Peptide; as to FP activity change, negative = inhibition: % of control where 0% means no effect
# Details: fluorescence polarization; FP activity change, negative = inhibition: at 61.6 µM (top of the series)
# Potency is read from the fitted curve at half-maximal effect; tags tell the direction and shape of the fitted curve or compound fluorescence and quenching.
SMILES,Potency,"FP activity change, negative = inhibition"
O=C(Nc1ccc(Oc2ccc(NC(=O)Nc3ccc([N+](=O)[O-])cc3)cc2)cc1)Nc1ccc([N+](=O)[O-])cc1,"inconclusive: 2 µM [quencher, side channel, full curve]",–
Cc1nc(-c2ccccc2)sc1C(=O)Nc1ccc(S(N)(=O)=O)cc1,"inconclusive: 39.8 µM [inhibitor, single point]",–
COc1ccc(NC(=O)CCC(=O)OCc2ccc(C(=O)Oc3ccc(Cl)cc3)cc2)cc1,"inconclusive: 35.5 µM [fluorescent, side channel, single point]",–
S=C(NCc1ccco1)Nc1ccc2c(c1)OCCO2,"inconclusive: 28.2 µM [quencher, side channel, single point]",–
Cn1cccc1CC(=O)N/N=C/C=C/c1ccco1,"inconclusive: 17.8 µM [quencher, side channel, partial curve]",–
O=C1NC(=S)N/C1=C\c1cccc([N+](=O)[O-])c1,"inconclusive: 28.2 µM [quencher, side channel, single point]",–
COC(=O)CSc1nc(NC(C)(C)C)nc(N(C)C)n1,"inconclusive: 10 µM [inhibitor, partial curve]",–
Cc1ccc(CC(CC(=O)O)C(=O)Nc2ccc(Cl)cc2)cc1 (stereo unspecified),"inconclusive: 39.8 µM [inhibitor, single point]",–
C=CCOc1ccc(Br)cc1/C=C1/SC(=Nc2ccc(C(=O)O)cc2)NC1=O,"inconclusive: 7.94 µM [quencher, side channel, partial curve, poor fit]",–
COc1cc2cc3c4c(cc(OC)c(OC)c4c2cc1OC)CCN3C,"inconclusive: 14.1 µM [quencher, side channel, partial curve]",–
CCn1c(C)nc2cc(C(=O)N/N=C/c3cccc(OC)c3O)ccc21,"inconclusive: 28.2 µM [inhibitor, single point]",–
CC1=NN(c2nc(-c3ccc(C)cc3)cs2)C(=O)C1N=Nc1ccc2ccccc2c1 (stereo unspecified),"inconclusive: 7.94 µM [quencher, side channel, partial curve]",–
O=C(CN1CCOCC1)Nc1ccc2c(c1)OCO2,"inconclusive: 14.1 µM [inhibitor, partial curve]",–
Cc1cc2n(c1)CCn1c(C)ccc1-2,"inconclusive: 25.1 µM [inhibitor, single point]",–
Oc1[nH]c2ccccc2c1C=Nc1ccc2c(c1)OCCO2,"inconclusive: 35.5 µM [quencher, side channel, single point]",–
O=C(CCc1nc2ccccc2s1)Nc1cccnc1,"inconclusive: 22.4 µM [quencher, side channel, single point]",–
O=C(C1CCN(S(=O)(=O)c2cnc[nH]2)CC1)N1CCN(Cc2ccc3c(c2)OCO3)CC1,"inconclusive: 1.41 µM [inhibitor, full curve, poor fit]",–
CN1/C(=C/C=C(C#N)C#N)C(C)(C)c2ccccc21,"inconclusive: 28.2 µM [fluorescent, partial curve]",–
CCOC(=O)C1CCN(Cc2cc(=O)oc3c(C)c(C)ccc23)CC1,"inconclusive: 25.1 µM [inhibitor, partial curve]",–

SMILES,Potency,"FP activity change, negative = inhibition"
Cc1ccccc1NC(=O)c1cccc(S(=O)(=O)Nc2cccc(C(=O)O)c2)c1,inactive,–
COc1ccccc1NC(=O)NC(=O)N(C(C)C)S(C)(=O)=O,"inconclusive: 28.2 µM [quencher, side channel, single point]",–
CN(C)c1ccc(N=Cc2ccco2)cc1,"inconclusive: 4.47 µM [fluorescent, side channel, full curve, poor fit]",–
Cc1ccccc1C(=O)O/N=C1\CCS(=O)(=O)c2sccc21,"inconclusive: 39.8 µM [inhibitor, single point]",–
O=C(NCCCN1CCOCC1)c1cc(-c2cccs2)on1,inactive,–
CCc1nnc(NS(=O)(=O)c2ccc(NC(=S)NC(=O)/C=C/c3ccc(OC)cc3)cc2)s1,"inconclusive: 39.8 µM [inhibitor, single point]",–
CCOc1cc(CNC(C)(C)C)ccc1OCC(=O)Nc1cccc(C(F)(F)F)c1,"inconclusive: 22.4 µM [fluorescent, side channel, single point]",–
Cc1ccc(C(=O)OCC(=O)NCc2ccco2)s1,"inconclusive: 31.6 µM [quencher, side channel, single point]",–
Cc1ccc(-c2nsc(SCC(=O)Nc3ccc4c(c3)OCO4)n2)cc1,"inconclusive: 35.5 µM [quencher, side channel, single point]",–
O=C(COC(=O)c1cc([N+](=O)[O-])ccc1NCCO)c1ccc(Cl)cc1,"inconclusive: 14.1 µM [quencher, side channel, partial curve]",–
Cc1ccc(-c2csc3ncn(Cc4ccc(C(=O)O)cc4)c(=O)c23)cc1C,"inconclusive: 15.8 µM [quencher, side channel, partial curve]",–
CCN1CCN(C(=O)Nc2ccccc2OC)CC1,"inconclusive: 39.8 µM [inhibitor, single point]",–
COC(=O)[C@@H]1CC[C@H](C)[C@@H](c2ccc(C)cc2)N1C(=O)c1ccc(/C=N\O[C@@H](C)CN2CCCc3nc(C)c(C)cc32)cc1,–,inactive: -23.7% [at 11.7 µM]
CCNC(=S)NNC(=O)c1cc(-c2cccc(C)c2)nc2ccccc12,"inconclusive: 22.4 µM [quencher, side channel, partial curve]",–
O=C(COC(=O)c1ccc(S(=O)(=O)N2CCCCC2)cc1)NCc1ccco1,"inconclusive: 35.5 µM [inhibitor, single point]",–
FC(F)(F)c1ccccc1-c1nc(Nc2ccncc2)c2ccccc2n1,"inconclusive: 22.4 µM [quencher, side channel, partial curve]",–
Cc1[nH]n(-c2ccccc2)c(=O)c1/C=N/NC(=O)c1ccoc1C,"inconclusive: 39.8 µM [quencher, side channel, single point]",–
C=CCn1nc(-c2ccccc2)c(N2CCCCC2)cc1=O,"inconclusive: 28.2 µM [fluorescent, side channel, single point]",–
O=C(c1ccc(Cl)cc1)N1CCN(c2ccnc3cc(Cl)ccc23)CC1,"inconclusive: 10 µM [inhibitor, partial curve]",–

SMILES,Potency,"FP activity change, negative = inhibition"
CSc1nc(Cc2ccccc2)nc2ccccc12,"inconclusive: 11.2 µM [fluorescent, side channel, partial curve, poor fit]",–
O=C(NCc1ccccc1F)C1CCCN(S(=O)(=O)c2ccc(-n3cnnn3)cc2)C1 (stereo unspecified),"inconclusive: 39.8 µM [fluorescent, side channel, single point]",–
C#CCOc1ccc(/C=C2/C(=O)N(c3cccc(C(=O)O)c3)N=C2C)cc1OC,"inconclusive: 28.2 µM [quencher, side channel, single point]",–
CCn1nc(NS(=O)(=O)c2ccc([N+](=O)[O-])cc2)c2cc3ccc(C)cc3nc21,"inconclusive: 7.08 µM [quencher, side channel, single point]",–
CCOc1cc(N2CCOCC2)c(OCC)cc1NC(=O)CN1CCC(Cc2ccccc2)CC1,"inconclusive: 3.16 µM [fluorescent, side channel, full curve, poor fit]",–
CCCOc1ccc(NC(=O)CC2C(=O)N(c3ccc(OCC)cc3)C(=S)N2C2CC2)cc1 (stereo unspecified),"inconclusive: 39.8 µM [fluorescent, side channel, single point]",–
Cc1ccccc1CN1CCNC1=O,"inconclusive: 2.82 µM [inhibitor, partial curve]",–
CC1CCC(C(C)C)C(OC(=O)Cn2c(-c3ccc(Br)cc3)[n+](C)c3ccccc32)C1 (stereo unspecified),"inconclusive: 2.24 µM [fluorescent, side channel, full curve, poor fit]",–
Cc1ccc2ccc(C)[n+](CCCS(=O)(=O)[O-])c2c1,inactive,–
Cc1ccc(NC(=O)CN2C(=O)N/C(=C/c3cccn3-c3ccc(C(=O)O)cc3)C2=O)cc1,inactive,–
COc1ccc(-c2nc3c(s2)CCc2onc(-c4ccc(OC)cc4)c2-3)cc1,inactive,–
CC(C)(c1ccccc1)c1ccc(OCC2CO2)cc1 (stereo unspecified),"inconclusive: 39.8 µM [inhibitor, single point]",–
CC(C(=O)c1ccc(-c2ccccc2)cc1)[n+]1cccc(C(N)=O)c1 (stereo unspecified),"inconclusive: 22.4 µM [inhibitor, single point]",–
C=CCN1C(c2cccc(C(F)(F)F)c2)=CS/C1=C(/C#N)c1nnc(N2CCOCC2)n1-c1ccccc1,"inconclusive: 11.2 µM [fluorescent, side channel, partial curve]",–
Cc1ccccc1OCC(=O)NC1CCCCCCC1,"inconclusive: 2.51 µM [fluorescent, side channel, partial curve]",–
CCOC(=O)C1=C(CNC(C)(C)CC(C)(C)C)NC(=O)NC1c1cccc([N+](=O)[O-])c1 (stereo unspecified),"inconclusive: 3.16 µM [fluorescent, side channel, full curve, poor fit]",–
Cc1ccc(S(=O)(=O)Oc2ccc(/C=C(/NC(=O)c3ccccc3)C(=O)Nc3ccccc3)cc2)cc1,"inconclusive: 28.2 µM [fluorescent, side channel, single point]",–
CN1C(=O)/C(=C/C=C2\SCCN2C)N(C)C1=S,"inconclusive: 10 µM [inhibitor, partial curve]",–
